# Experimental data: patent US12213955B2 (priority 2017, dated 2025)
# Columns and labels:
# [1] = tested on: influenza A(H1N1)pdm09 virus; assay type: cell-based, A/Hong Kong/415742/2009(H1N1)pdm09
# [2] = tested on: influenza A(H1N1)pdm09 virus; assay type: cell-based, A/Hong Kong/415742/2009(H1N1)pdm09; remark: listed apart in the source
Structure (SMILES),concentrations inhibiting replication of influenza A(H1N1)pdm09 [1],selectivity index (CC50/IC50) [1],cell protection against influenza A(H1N1)pdm09 virus infection [2],decrease in viral titer in the supernatant vs DMSO-treated control (influenza A(H1N1)pdm09) [log 10/ml]
CC1(C)CCC(C)(C)c2cc(C(=O)Nc3ccc(C(=O)O)cc3)ccc21 [AM580],nanomolar to low micromolar,159,protected cells against infection,–
CCCCCCCCCCCCCCC(Br)C(=O)O (stereo not drawn) [2-BP],–,–,–,1
CCCCCCCCCCCCC/C=C/[C@@H](O)[C@H](CO)NC(=O)CCCCCCCCCCCCCCC [C16 Ceramide],–,–,specifically protected MDCK cells,–
O=Cc1c2[nH]c3ccccc3c2cc2[nH]c3ccccc3c12 [FICZ],–,–,specifically protected MDCK cells,–
